PubChem BioAssay AID743279 (National Center for Advancing Translational Sciences (NCATS), 2014)
In all, about 360,000 compounds went through this assay and about 17,000 (4.7%) were called active. The shares of active, inactive and inconclusive entries below differ from those in the screen. Rule as the data show it: active = activity change below about -50%; inconclusive = mostly about -30% to -49%; inactive = weaker than that.

test: qHTS for Inhibitors of Inflammasome Signaling: IL-1-beta AlphaLISA Primary Screen; conditions: THP-1 LPS/ATP IL-1B secretion, 16 h; at 57.5 µM, active compounds read low
Method in brief: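 THP-1 cells pretreated 1 hr with compounds (up to 57.5 uM final), then stimulated with LPS (250 ng/mL final) plus ATP (1.25 mM final); secreted IL-1B measured by AlphaLISA after 16 hr, decreased signal indicating inhibition.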
% is scaled to controls: 0 for no effect and ±100 for the full control effect.

SMILES	activity change
Cc1ccc(C)c(Cn2nnc3c(=O)[nH]c(C4CCN(S(=O)(=O)c5ccc(S(=O)(=O)N(C)C)cc5)CC4)nc32)c1	inconclusive: -43.4%
CCOC(=O)CCNC(=O)Nc1ccc2nc(C)n(Cc3ccc(Cl)cc3)c(=O)c2c1	inactive: -7.27%
CCCNC(=O)c1cc2c(c(-c3cccc(-c4ccc(F)cc4)c3)n1)[C@H](CCO)N(S(=O)C(C)(C)C)C2 (some centres undefined)	inconclusive: -33%
O=C(Nc1ccc(Cl)cc1)N1CCC(c2nc(-c3ccc(F)cc3)no2)CC1	inconclusive: -47.5%
Cc1cccc(-c2nnc(SCC#N)n2-c2ccccc2)c1	inconclusive: -30.7%
CCOc1ccc(N(C(C)C(=O)N/N=C(\C)c2cccc(NC(=O)c3ccccc3)c2)S(C)(=O)=O)cc1 (centres undefined)	inconclusive: -40.4%
Cc1ccccc1Cn1nnc(C(=O)Nc2ccc3c(c2)OCCO3)c1N	inconclusive: -36.8%
Cc1ccc(NC(=O)c2cccc3c2C(=O)N(C2CCCCC2)C3)c(C)c1	inactive: -5.99%
COC(=O)CS(=O)(=O)c1ccsc1C(=O)Nc1ccc(F)c(F)c1	inactive: -9.52%
Cc1cccc(S(=O)(=O)NC(=O)C2(C)CCN2C(=O)Cc2ccccc2)c1 (centres undefined)	inactive: 3.15%
CCNC(C(=O)c1c[nH]c2c(CC)cccc12)c1ccccc1 (centres undefined)	active: -57.3%
Cc1cccc(N2CCN(C(=O)COc3ccc4c(C)cc(=O)oc4c3C)CC2)c1C	inconclusive: -41.4%
CC1(C)CC[C@@]23CC[C@]4(C)[C@@](OC2=O)(C3C1)[C@H]1O[C@H]1C1[C@@]2(C)CC[C@H](O)C(C)(C)C2CC[C@]14C (some centres undefined)	inactive: 12.6%
CC(=O)c1ccc2noc(-c3cccc(F)c3)c2c1	inconclusive: -35.3%
CCn1c2ccccc2c2cc(NC(=O)N3CCCCC3)ccc21	inconclusive: -36.2%
Cn1c(Cl)c(/C=N/OC(=O)c2ccccc2Cl)c2ccccc21	inactive: -6.7%
Cc1c(C)n(C)c2ccc(C(=O)NCCCN3CCCCC3C)cc12 (centres undefined)	inconclusive: -34.8%
CN1C(=O)/C(=C/c2cc(C(C)(C)C)c(O)c(C(C)(C)C)c2)NC1=S	inactive: 13.4%
N#Cc1nc(-c2ccc(OCc3ccccc3)cc2)oc1NCCCN1CCOCC1	inconclusive: -30.4%
O=C(Nc1c(C(=O)N2CCOCC2)oc2ccccc12)c1ccccc1Cl	inconclusive: -30.4%
CC(C)(C)OC(=O)N(CCc1ccccc1)Cc1cccc(OCc2cccc(NC(=O)c3ccccc3)c2)c1	inconclusive: -36.8%

SMILES	activity change
O=C(NCc1ccc2c(c1)OCO2)c1ccc(CSCc2cccc(Cl)c2)o1	inconclusive: -37.9%
O=C(Nc1ccn(Cc2c(F)c(F)cc(F)c2F)n1)c1ccc(COc2ccc(Cl)cc2Cl)o1	inconclusive: -33.9%
CCC(c1nnnn1Cc1ccc2c(c1)OCO2)N1CCN(c2ccc(OC)cc2)CC1 (centres undefined)	inconclusive: -30.8%
O=C(Nc1nc2c(s1)CCCC2)C1COc2ccccc2O1 (centres undefined)	inconclusive: -30.1%
Cc1ccc(-c2c[n+](CC(=O)N3c4ccccc4Sc4ccccc43)c3n2CCC3)cc1	active: -57.9%
O=C(Cc1ccc(Cl)c(Cl)c1)NC1CCCCCC1	inconclusive: -30.4%
CC(C)c1ccc(S(=O)(=O)c2ccc(NN)cc2)cc1	inconclusive: -36%
Cc1c(N=C2NN=C(c3c[nH]c4ccccc34)CS2)c(=O)n(-c2ccccc2)n1C	inactive: 1.7%
O=C(O)CC1(CC(=O)N2CCOCC2)CCCC1	inactive: 8.24%
CC(=O)NS(=O)(=O)c1ccc(N=c2ssc3c2-c2cc(C)c(C)cc2NC3(C)C)cc1	inconclusive: -36.4%
Clc1cnc(N/N=C/c2ccncc2)c(Cl)c1	inconclusive: -31%
O=C(CCl)NNc1nc(-c2ccccc2)c2cc(Cl)ccc2n1	inconclusive: -39%
O=C1c2cc([N+](=O)[O-])cc3cc([N+](=O)[O-])cc(c23)C(=O)N1c1ccccn1	active: -99.7%
COc1ccccc1-c1oc2ccccc2c1C#CC1(N)CCCCC1	inconclusive: -49.5%
Cc1cccc(-n2c(SCC(=O)NCc3ccco3)nc3ccccc3c2=O)c1	inconclusive: -47.6%
Cc1cccc(C)c1NC(=O)c1cccc2c1C(=O)N(C1CCCCC1)C2	active: -61.6%
O=C1N(c2cccc(Cl)c2)C(c2ccc(Cl)cc2)N2CCCN12 (centres undefined)	inactive: -2.06%
Nc1c(C(=O)O)ccc2c1C(=O)c1ccccc1C2=O	inactive: 19.9%
Cc1ccc(C(=O)C=CC=Cc2ccccc2)cc1	inconclusive: -43.6%
COc1ccc(C(=O)C2CCCN(Cc3sc(N4CCCC4)nc3Cl)C2)c(OC)c1 (centres undefined)	inconclusive: -41.6%
CC1(C)Cc2c(sc3c2c(=N)n(Cc2ccco2)c(=O)n3CC(=O)Nc2ccccc2)CO1	active: -50.9%

SMILES	activity change
C/C(=N\NC(=O)c1nnn(-c2nonc2N)c1CN1CCc2ccccc21)c1ccccc1O	inactive: 93.2%
CC(C)(CNC(=O)c1ccccc1NS(C)(=O)=O)N1CCCCC1	inactive: -3.65%
O=C(c1ccccn1)N1N=C2/C(=C/c3ccc(F)cc3)CCCC2C1c1ccc(F)cc1 (centres undefined)	active: -54.7%
O=S(=O)(NCC(c1cccs1)N1CCc2ccccc2C1)c1ccccc1 (centres undefined)	inconclusive: -43.9%
Cn1c(=O)c2c(nc(NCCCN3CCOCC3)n2Cc2ccc(Cl)cc2)n(C)c1=O	inactive: -24.7%
C#CC[N+](C)(C)CCCCCCCCCCCC	active: -87.6%
CCOc1ccc(NC(=O)CCCn2nc(C)c3c(C)n(-c4ccccc4)nc3c2=O)cc1	inconclusive: -31.7%
CCCCn1c(C(C)NC(=O)CCC)nc2ccccc21 (centres undefined)	inactive: 30.3%
Cc1nc2ccccc2c(=O)n1-c1ccc(F)c(NC(=O)c2cccs2)c1	inconclusive: -41.8%
Cc1c(CCO)c(=O)oc2n[nH]c(-c3ccccc3)c12	active: -60.6%
CC(/C=C/c1ccc2c(c1)OCO2)=N\NC(=O)c1cccc([N+](=O)[O-])c1	inactive: -7.81%
Cc1ccc(NC(=O)c2cccnc2)c([N+](=O)[O-])c1	inconclusive: -49.9%
O=C(COC(=O)Cc1ccccc1[N+](=O)[O-])NCc1ccc(Cl)cc1	inconclusive: -30.2%
Cn1ccnc1SCC(=O)c1c[nH]c2ccccc12	inactive: 12.4%
COCC(=O)N(Cc1cc2cc(C)ccc2[nH]c1=O)c1ccc(C)c(C)c1	inconclusive: -33%
CCOC(=O)c1sc(N(C)C)nc1-c1ccccc1	inconclusive: -38%
COc1ccc(/C=C/C(=O)c2ccccc2)cc1COc1ccc(F)cc1	active: -52.4%
Cc1cc(-c2ccccc2)nc2cc(C(=O)NCCCn3ccnc3)nn12	inconclusive: -38%
CCN(CC)CCOc1ccc2c(c1)C(=NO)c1cc(OCCN(CC)CC)ccc1-2	active: -105%
Cc1cc(N2CCOCC2)ccc1/C=C\[N+](=O)[O-]	active: -223%
C#CC[N+](C)(C)CC#Cc1ccccc1	active: -65.7%

SMILES	activity change
COc1cc(/C=N/N=C(N)N)ccc1OCc1ccccc1Cl	active: -66.5%
CC(C)c1nc(N2CCN(C(=O)c3ccco3)CC2)c2c3c(sc2n1)CCCC3	inconclusive: -43.8%
O=C(c1ccccc1)N1CCN(C(=O)c2ccccc2Br)CC1	inconclusive: -43.7%
O=C(NC(c1ccc(-c2ccccc2)cc1)c1cnccn1)C1CCN(Cc2cccc(C(F)(F)F)c2)CC1 (centres undefined)	active: -63.1%
COc1cccc(C(=O)NCC(c2cccs2)N2CCc3ccccc32)c1 (centres undefined)	inconclusive: -38.2%
O=C(NCCN1C(=O)S/C(=C\c2cccnc2)C1=O)c1cc(S(=O)(=O)N2CCOCC2)ccc1F	inactive: 0%
CCN(CC)C(=O)C1=C(C)N(Cc2ccc(OC)cc2)C(=O)C(CC(=O)NC(c2ccccc2)c2ccccc2)C1 (centres undefined)	inconclusive: -34.9%
CCCCN(CCCC)C(=O)/C=C/c1cccc([N+](=O)[O-])c1	inconclusive: -36.1%
Cc1ccc(NCSc2ccc(Cl)cc2)cc1	inconclusive: -35.8%
O=C(CSc1nnc(-c2ccccn2)n1Cc1ccccc1)NC1CCCC1	inconclusive: -33.2%
O=C(COC(=O)c1ccc2ccccc2c1)NCc1ccccc1	inactive: 20.7%
O=C(CCC(=O)c1ccc(Oc2ccccc2)cc1)Nc1ccc(Cl)cc1Cl	inconclusive: -43.5%
O=C1N[C@@H](Cc2ccccc2)COC(=O)[C@H](Cc2ccc(F)cc2)CC/C=C/C[C@H]1CC(=O)N(CCO)Cc1ccccc1	inconclusive: -42.3%
Cc1ccc(N2C(=O)N(CC(=O)Nc3ccc(C)c(C)c3)C(=O)C2C)cc1 (centres undefined)	inconclusive: -33.2%
CN(C1CCCCC1)S(=O)(=O)c1ccc(SCC(N)=O)nc1	inconclusive: -31.4%
O=C(/C=C(\c1ccc(Cl)cc1)n1cncn1)c1ccc(Cl)cc1	active: -57.3%
CC1=C(C(=O)N2CCCCCC2)CC(CC(=O)NCc2cccc3ccccc23)C(=O)N1CCC1=CCCCC1 (centres undefined)	active: -62.8%
C[C@@H]1CN([C@@H](C)CO)C(=O)c2cc(C3=CCCCC3)cnc2O[C@H]1CN(C)C(=O)Nc1cccc(F)c1	inactive: -8.5%
Cc1ccc(NC(=O)c2ccc(NCCCN3CCC(C)CC3)c([N+](=O)[O-])c2)cc1F	inconclusive: -31.6%
COc1ccccc1NC(=O)CSc1ccc(-c2ccc(-n3cccn3)cc2)nn1	inactive: -14.7%
COC(=O)[C@@]12CCCN1[C@H](c1ccc(-c3ccc4c(c3)OCO4)c(OC)c1)[C@H]1C(=O)N(C)C(=O)[C@H]12	inactive: 7.04%
